# Reference: paper PMC12040169 (PLOS Biology, 2025)
# The list shows a part of the results.
# Tested on: T1, C. trachomatis L2/434/Bu expressing GFP (CTL2-GFP)
# T1 construct: L2/434/Bu GFP intracellular growth in HeLa cells
# Set-up: species or system HeLa; C. trachomatis total inclusion area by high-content imaging, normalised to DMSO
# Conditions: total inclusion area; 28.5 h, 10 µM; inhibitor
# In short: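 High-content imaging followed the bulk GFP/resorufin measurement: fixed, Hoechst-stained cells were scored for GFP inclusions and host nuclei per well. Total inclusion area and count served as growth proxies, nuclei number as the viability proxy. MIC calculation matched the bulk assay.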
row,Structure (SMILES),% of control remaining
1,CCC(=O)Oc1ccc(/N=C2/NC(C)(C)O2)cc1 [CBK010922],84.4286
2,Cc1n[nH]c(C)c1C1COCCN1C(=O)c1cccc(F)c1 (centres unmarked) [CBK305105],70.4476
3,Cc1ccc(S(=O)(=O)c2ccc(C)c(S(=O)(=O)N3CCC(C)CC3)c2)cc1S(=O)(=O)N1CCC(C)CC1 [CBK261743],92.775
4,CC1CN(c2cc(CNCc3cnn4ccccc34)ccn2)CCO1 (centres unmarked) [CBK304018],91.0223
5,OC(COc1c(Br)cccc1Br)CN1CCCCC1 (centres unmarked) [CBK003077T],36.355
6,CCN(CC)C(=O)C1CCCN(C(=O)NC(c2ccccc2)c2ccccc2)C1 (centres unmarked) [CBK156125],113.536
7,CC(C)c1ccc(S(=O)(=O)NCc2ccc(F)c(F)c2F)cc1 [CBK044717],97.2631
8,O=C(CSc1nnc(-c2cccnc2)s1)Nc1ccc([N+](=O)[O-])cc1 [CBK268777],69.0332
9,O=C(NCC(c1ccco1)N1CCCC1)C1CCCCC1 (centres unmarked) [CBK304560],95.5188
10,CCCCc1cc(=O)[nH]c(N2CCOCC2)n1 [CBK003851],92.7407
11,C#CCNC(=O)C1CCCN(c2nc3ccccc3n2CC)C1 (centres unmarked) [CBK282433],116.381
12,COc1ccc(-c2cc(C(=O)Nc3nc4ccccc4[nH]3)cnc2-c2ccc(F)cc2)cn1 [CBK036617],70.1322
13,Cc1nn(C)c(C)c1S(=O)(=O)n1ccn(-c2ccc(N(C)C)cc2)c1=O [CBK106610],100.323
14,O=C(O)CCNS(=O)(=O)c1ccc2[nH]c(=O)[nH]c2c1 [CBK266906],105.519
15,O=S(=O)(Nc1ccc2[nH]ncc2c1)c1ccc(Br)cc1C(F)(F)F [CBK062529],94.7876
16,Cc1nc2c(Oc3ncccn3)cccn2c1N(C)C(=O)C1CCCCC1 [CBK147161],120.147
17,Cc1ccccc1-c1nnc(SC(C)C)n1CCN(C)CC(F)(F)F [CBK200090],99.1146
18,O=C(NCCc1c[nH]c2ccccc12)c1nn(-c2ncccn2)c2ccccc12 [CBK048496],94.4261
19,Cc1ccc2nc(-c3ccccc3)c(CN3CCCC3)c(O)c2c1 [CBK264736],98.2298
20,O=C(NCCCN1CCOCC1)c1ccc2nccnc2c1 [CBK268704],82.7178
21,c1ccc2oc(CN3CCC(N4CCCCC4)CC3)cc2c1 [CBK282052],106.772
22,C=CCN1CCC(C(=O)NC(C)c2cc(OC)ccc2OC)CC1 (centres unmarked) [CBK148762],94.607
23,O=C(O)COc1ccc(Br)cn1 [CBK026021],44.8839
24,O=C(O)c1ccccc1C(=O)c1ccc(Oc2ncc(C(F)(F)F)cc2Cl)cc1 [CBK161648],103.251
25,O=C1c2ccc(-c3ccc4c(c3)C(=O)N(Cc3ccco3)C4=O)cc2C(=O)N1Cc1ccco1 [CBK266578],109.086

row,Structure (SMILES),% of control remaining
1,Cc1noc(C)c1C(=O)N1CCC2(CC1)CC(=O)c1cc(Br)ccc1O2 [CBK156508],84.6344
2,CN1CCN(CCC(=O)N/N=C/c2c[nH]c3ccccc23)CC1 [CBK261502],97.2805
3,Cc1cnc2[nH]c(C3CCCN(C(=O)c4cn(C)nc4C)C3)cc2c1 (centres unmarked) [CBK285170],74.9652
4,COc1ccccc1N1CCN(C(=O)Nc2cccnc2)CC1 [CBK155617],64.3538
5,COc1cc(CNCc2ccc(F)cc2)cc(Cl)c1OCC(N)=O [CBK270256C],83.665
6,CC(C)C(=O)Nc1nc2c([nH]c(=O)n2[C@H]2C[C@@H](O)[C@@H](CO)O2)c(=O)[nH]1 [CBK201202],150.701
7,CN(C)c1ncccc1OC1CCN(c2nnc(C(F)(F)F)s2)C1 (centres unmarked) [CBK304789],68.5742
8,COc1ccccc1-n1nc(-c2ccncc2)nc1C(C)NS(C)(=O)=O (centres unmarked) [CBK306868],89.18
9,CC(Cn1cncn1)C(=O)N1CCc2sccc2C1C (centres unmarked) [CBK282080],79.9921
10,COc1ccc(-c2n[nH]c(=S)n2CCC(=O)NCCc2cc(C)n(-c3ccccc3)c2C)cc1 [CBK295632],120.805
11,Cc1cccc(-c2ccc(CC3(C(=O)NC(C)C)CCN(C(=O)C4CC4)CC3)cc2)c1 [CBK285757],67.381
12,C=CCn1c(Cc2csc(NC(=O)c3ccc(C)cc3)n2)n[nH]c1=S [CBK295292],132.084
13,O=C(CCCOc1ccc(Cl)cc1)n1ccn(CCc2cccs2)c1=O [CBK106614],102.475
14,O=[N+]([O-])c1nn(-c2ccc3c(c2)OCCO3)[n+]([O-])c1NCCN1CCN(c2ccccc2F)CC1 [CBK268314],60.6836
15,CS(=O)(=O)NC1CCN(C2CCc3c(Cl)cccc32)CC1 (centres unmarked) [CBK305252],54.7131
16,O=c1c2ccccc2nc2n1CCN(Cc1ccccc1)CC2 [CBK284790],106.609
17,O=C1N=C(NC2CCCCCC2)SC1CC(=O)N1CCOC12CCCCC2 (centres unmarked) [CBK067355],56.8078
18,CCN(CC)C(=O)CN1CCCN(c2cc(OCCN3C(=O)CCC3=O)ncn2)CC1 [CBK083266T],135.1
19,Cc1cc(NC(=O)CN2CCN(Cc3ccc4c(c3)CCO4)CC2)on1 [CBK305610],64.6704
20,O=C(O)c1cccc(N2C(=O)c3cccc4c(Cl)ccc(c34)C2=O)c1 [CBK299836],78.8769
21,COCCCNC(=O)C1CCN(c2nc3c(-c4cccc(C)c4)csc3c(=O)[nH]2)CC1 [CBK215630],129.947
22,CCCNC(=O)C1(Cc2ccccc2-c2ccccc2)CCN(C(=O)c2ccccc2)CC1 [CBK286275],127.66
23,c1ccc(Oc2ccc(Nc3ccc(-c4cccc5cccnc45)cn3)cc2)cc1 [CBK037643],89.9622
24,NCCCNc1ccc(-c2ccco2)cn1 [CBK036911],119.423
25,CCc1c[nH]c(SCC(=O)c2cc(C)n(C3CCS(=O)(=O)C3)c2C)n1 (centres unmarked) [CBK306486],61.0498
